Data: paper PMC4336329 (PLoS ONE, 2015)
About 14,000 (4.5%) of roughly 310,000 compounds showed an effect of 50% or more. Effects have a minus sign here. The list shows a part of the results.

Biological target: human ether-à-go-go-related gene (hERG) potassium channel (human, UniProt Q12809)
Experiment: primary screen, population patch clamp on CHO cells stably expressing hERG
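Also: peak tail current of the secondary pulse compared with the same well before compound.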

Sequence of human ether-à-go-go-related gene (hERG) potassium channel (Q12809 whole entry, looked up): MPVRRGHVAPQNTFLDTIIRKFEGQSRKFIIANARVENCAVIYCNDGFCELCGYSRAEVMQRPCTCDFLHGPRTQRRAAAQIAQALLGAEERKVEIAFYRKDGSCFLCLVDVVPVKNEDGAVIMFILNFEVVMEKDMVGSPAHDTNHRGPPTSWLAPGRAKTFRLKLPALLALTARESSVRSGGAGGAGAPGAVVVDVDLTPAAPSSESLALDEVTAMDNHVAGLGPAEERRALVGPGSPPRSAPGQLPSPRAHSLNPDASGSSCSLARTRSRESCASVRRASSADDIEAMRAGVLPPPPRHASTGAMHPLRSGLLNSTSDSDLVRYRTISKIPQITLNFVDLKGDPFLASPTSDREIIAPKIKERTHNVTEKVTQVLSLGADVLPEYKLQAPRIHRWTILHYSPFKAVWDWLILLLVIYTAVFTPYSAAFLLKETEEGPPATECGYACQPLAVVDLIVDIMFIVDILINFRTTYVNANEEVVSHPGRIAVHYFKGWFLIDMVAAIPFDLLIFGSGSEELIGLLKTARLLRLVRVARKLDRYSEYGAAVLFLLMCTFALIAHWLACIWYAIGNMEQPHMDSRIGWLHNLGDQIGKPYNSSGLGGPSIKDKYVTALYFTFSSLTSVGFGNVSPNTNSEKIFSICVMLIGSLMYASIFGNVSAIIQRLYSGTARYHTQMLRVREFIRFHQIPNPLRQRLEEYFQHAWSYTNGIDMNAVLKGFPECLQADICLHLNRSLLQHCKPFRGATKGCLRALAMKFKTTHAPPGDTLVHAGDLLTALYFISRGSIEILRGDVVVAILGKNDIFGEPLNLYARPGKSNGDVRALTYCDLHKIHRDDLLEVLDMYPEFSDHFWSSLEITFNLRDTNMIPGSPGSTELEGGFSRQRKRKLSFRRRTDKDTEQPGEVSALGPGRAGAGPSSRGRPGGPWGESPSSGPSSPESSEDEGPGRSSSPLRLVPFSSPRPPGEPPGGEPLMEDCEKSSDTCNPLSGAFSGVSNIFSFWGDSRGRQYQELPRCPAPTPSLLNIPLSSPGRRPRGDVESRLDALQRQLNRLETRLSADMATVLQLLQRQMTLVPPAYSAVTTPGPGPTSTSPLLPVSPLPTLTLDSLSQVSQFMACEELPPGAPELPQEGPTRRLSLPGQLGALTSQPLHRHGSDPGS

| SMILES | hERG current change (%, negative = inhibition) at 10uM [%] |
| --- | --- |
| COc1ccc(/C=C/C(=O)NC2CCN(Cc3ccccc3)CC2)cc1OC | -29 |
| CCOC(=O)C(CC)n1cnc2c(nnn2-c2cccc(OC)c2)c1=O (stereo not drawn) | 12.9 |
| Cc1nn(C)c(C(=O)N2CCc3ccccc32)c1Br | -3.6 |
| COc1ccc(/C=N/NC(=O)c2ccco2)cc1COc1ccc(F)cc1 | 10.5 |
| CCn1c(C)c(C(C)=O)c(SC)nc1=S | -4.98 |
| CCc1cccc(OCC(O)Cn2c(N3CCCCC3)nc3c2c(=O)[nH]c(=O)n3C)c1 (stereo not drawn) | 13.7 |
| CCCc1cc(=O)[nH]c(SCC(=O)N(CC(C)C)C2CCS(=O)(=O)C2)n1 (stereo not drawn) | 3.01 |
| CCOc1ccc2ccccc2c1/C=N/NC(=O)CNC(=O)C(c1ccccc1)c1ccccc1 | 15.3 |
| CC1CCN(S(=O)(=O)c2ccc3c4c2CC(=O)N4CC(C)S3)CC1 (stereo not drawn) | 7.22 |
| COc1ccc(C2C(C(N)=O)=C(C)Nc3nc(-c4ccccc4Cl)nn32)c(OC)c1 (stereo not drawn) | -12.9 |
| Cc1c(C#N)c2ccccc2n1CC(=O)O | 5.22 |
| Cc1ccc(C(=O)NCCC2=CCCCC2)cc1S(=O)(=O)N1CCCCC1 | -31.8 |
| CC(NC(=O)c1ccc2c(c1)C(=O)N(Cc1cccnc1)C2=O)c1ccccc1 (stereo not drawn) | 5.7 |
| CC(C)c1nnc(NC(=O)CCC(=O)NC2CCCCCCC2)s1 | -7.17 |
| CN(C)c1ccc(NC(=O)c2ccc([N+](=O)[O-])cc2Cl)cc1 | -19.9 |
| CCCc1cc(=O)[nH]c2nnc(SCC(=O)N3CC(C)OC(C)C3)n12 (stereo not drawn) | 19 |
| CCN(CC)CCCNC(=O)Cn1ncn2cccc2c1=O | 21 |
| COc1ccccc1Nc1ccc(C(=O)NCc2cccs2)cn1 | -2.73 |
| CC(C)(C)/C(O)=C/c1nc2ccccc2oc1=O | 13.6 |
| C=CCCC(=O)N1CCCC(C(=O)c2cccc(OC)c2)C1 (stereo not drawn) | -12.5 |
| CCc1ccc(NC(=O)c2noc3c2CCC3)cc1 | 1.3 |
| O=C(COC(=O)C1CCN(c2ccc(C(F)(F)F)cn2)CC1)NC1CCCCC1 | -6.51 |

| SMILES | hERG current change (%, negative = inhibition) at 10uM [%] |
| --- | --- |
| O=C(Nc1cscc1S(=O)(=O)c1ccc(Cl)cc1)c1ccccc1Cl | -0.486 |
| COc1ccccc1N1CCN(C(c2ccc(N(C)C)cc2)c2nnnn2CCc2ccccc2)CC1 (stereo not drawn) | 7.71 |
| C=CCn1c(-c2ccoc2)n[nH]c1=S | 18.5 |
| COc1ccc2cc(C(=O)O)n(CC(=O)c3ccccc3)c2c1 | 16.9 |
| Cn1nnnc1SCC(=O)N1CCCc2ccccc21 | 7.41 |
| O=C(Cn1c(=S)[nH]c2ccccc21)c1ccccc1 | 14.4 |
| CCCCC(CCC(=O)O)(C(=O)OCC)c1csc(Nc2ccccc2)n1 (stereo not drawn) | 5.77 |
| Cc1nc(C(=O)N(C)C)nn1-c1cc(Cl)ccc1Cl | 12.8 |
| CCOC(=O)c1[nH]c2ccc(OC)cc2c1NC(=O)c1ccccc1C(=O)O | 14.2 |
| Cc1cccc(C(=O)OCC(=O)NCCCc2ccccc2)c1 | 14.3 |
| COCC(=O)Nc1ccc2nc3n(c(=O)c2c1)CCCCC3 | -2.98 |
| CC(C)(C)c1cc(C(=O)NCC(=O)OCC(=O)c2cccc([N+](=O)[O-])c2)cc(C(C)(C)C)c1 | 2.91 |
| O=C(Nc1cc(Cl)ccn1)C1(c2ccccc2)CC1(Cl)Cl (stereo not drawn) | 12.7 |
| CC1(C)CC(O)C(C(O)c2cccc([N+](=O)[O-])c2)C(C)(C)N1 (stereo not drawn) | 30.1 |
| Clc1cccc(Cl)c1OCCCCN1CCCCC1.O=C(O)C(=O)O | -40.8 |
| O=C(COC(=O)C1CC1)Nc1ccc(Oc2ccccc2)cc1 | -29 |
| CNC(=O)c1cccc2cccc(Sc3ccccc3C(=O)O)c12 | 13.7 |
| Cc1ccccc1NC(=O)C1C2C=CC(C3CC23)C1C(=O)O (stereo not drawn) | 19.2 |
| COc1ccc(-c2c(-c3cc(OC)cc(OC)c3)n(C)c3ccc(-c4ccn[nH]4)cc23)cc1 | -0.287 |
| COc1ccc(NC(=O)c2nc[nH]c2C(=O)NCCCCCNC(=O)OC(C)(C)C)cc1 | 27.3 |
| O=C(c1cccc(N2C(=O)C3C4C=CC(C4)C3C2=O)c1)N1CCN(c2ccccc2Cl)CC1 (stereo not drawn) | -13.8 |
| CC1=C(C#N)CCC(=O)N1Cc1c(C)cc(C)cc1C | 7.22 |

| SMILES | hERG current change (%, negative = inhibition) at 10uM [%] |
| --- | --- |
| Cc1ccc(C(C)n2cc(C(=O)NCc3cccnc3)nn2)cc1 (stereo not drawn) | -6.78 |
| CC(C)n1c(/C=C/c2ccccc2)nc2ccccc21 | -7.87 |
| CC(=O)c1c(C)n(-c2ccccc2Br)c2ccc(O)cc12 | 19.4 |
| CC(=O)Oc1ccc(C(=O)OCC(=O)c2c(N)n(C)c(=O)n(C)c2=O)cc1OC(C)=O | 45 |
| c1ccc(-c2ccc3c(c2)NC(C2Nc4cc(-c5ccccc5)ccc4O2)O3)cc1 (stereo not drawn) | 7.08 |
| O=C(/C=C/c1ccco1)c1ccc(O)cc1 | -12.1 |
| CCOC(=O)CCc1c(C)nc2cc(C3CCCN(C(=O)OC(C)(C)C)C3)[nH]n2c1=O (stereo not drawn) | -7.68 |
| O=C(/C=C/c1ccc(F)cc1)Nc1cc(S(=O)(=O)N2CCOCC2)ccc1N1CCCC1 | -70.9 |
| O=C(Nc1ccc(Oc2ccccc2)nc1)C1CCN(Cc2ccccc2)CC1 | -54.9 |
| c1ccc(Cn2c(NCc3ccccn3)nc3ccccc32)cc1 | -39 |
| S=C(NCCCN1CCOCC1)NC1CCCC1 | 8.32 |
| Cc1ccc(C(=O)/C=C\NCc2ccccc2)cc1 | -1.88 |
| C#CCOCCOCCOCCNc1nc(N2CCN(C(=O)[C@H](C)n3cc(CCC[NH+]=C(N)N)nn3)CC2)nc(N2CCN(C(=O)[C@H](Cc3ccc(O)cc3)n3cc(CCO)nn3)CC2)n1.[Cl-] | 14.3 |
| CCCc1nnc(NC(=O)CCC(=O)Nc2ccc(Cl)cc2)s1 | 18.1 |
| CN(C)/C=N/c1c(C#N)cnn1-c1ccccc1 | -1.03 |
| CCOC(=O)c1oc2nc(CC(C)C)c3c(c2c1N)CCCC3 | -3.62 |
| O=C(Cc1c(F)cccc1Cl)NCCc1c[nH]c2ccccc12 | 8.99 |
| O=C(CC1Sc2ccccc2NC1=O)OC(C(=O)NCCc1ccccc1)c1cccnc1 (stereo not drawn) | -38.5 |
| Cn1c(=O)n(C)c2cc(S(=O)(=O)Nc3ccc(F)cc3)ccc21 | 20.9 |
| Cc1cc(C(=O)CN2C(=O)C(=O)N(CC(C)C)C2=O)c(C)n1-c1ccccc1F | -9.17 |
| COC(Cc1n[nH]c(=S)n1-c1ccccc1)OC | 14.4 |
| COc1ccc(/C=C2/SC(=O)N(CCC(=O)Nc3ccc(S(=O)(=O)Nc4nccs4)cc3)C2=O)cc1 | 7.64 |

| SMILES | hERG current change (%, negative = inhibition) at 10uM [%] |
| --- | --- |
| Cc1ccc(-c2cc(C(=O)NCc3ccc4c(c3)OCO4)[nH]n2)c(O)c1C | -3.98 |
| Cc1ccc(C)c(N(CC(=O)NC2CCCC2)C(=O)CNC(=O)c2cccs2)c1 | -0.398 |
| Cc1ccc(NC(=O)NC2(C(=O)NCc3ccco3)CCCCC2)cc1 | 3.86 |
| CC(C)CN1C2CCCC1CC(NC(=S)NCc1ccco1)C2 (stereo not drawn) | -18.7 |
| Cc1cccc(/C=N/NC(=O)c2ccc(NC(=O)c3ccccc3Cl)cc2)n1 | 27.7 |
| COc1ccc(C(=O)Nc2ccc(C)cn2)c(OC)c1 | -4.18 |
| COc1ccccc1CCNC(=O)CCC(=O)N1CC2C[C@@H](C1)Cn1c2cccc1=O | 6.31 |
| CC(C(=O)NCCC1=CCCCC1)c1ccc([N+](=O)[O-])cc1 (stereo not drawn) | 9.98 |
| CCC(=O)Nc1nnc(S(=O)(=O)N2CCCC2)s1 | 8.85 |
| CC(C)(C)NC(=O)C(c1ccc(O)cc1)N(Cc1ccco1)C(=O)CCC(=O)Nc1ccccn1 (stereo not drawn) | -2.54 |
| C=CCNC(=O)N[C@@H](Cc1ccccc1)C(=O)OC | 13.3 |
| O=C(Nc1ncn[nH]1)c1cccc(S(=O)(=O)N2CCOCC2)c1 | 4.6 |
| CCn1cc(CNC(=O)c2ccc(OC3CCN(Cc4ccccn4)CC3)cc2)cn1 | 7.38 |
| CCN(CC)C(=O)c1cccc(NC(=O)c2ccccc2OCc2c(C)noc2C)c1 | -18.2 |
| NS(=O)(=O)c1ccc(CNC(=O)c2ccc(NS(=O)(=O)c3ccc4[nH]c(=O)[nH]c4c3)cc2)cc1 | -41.2 |
| COc1ccc(NS(=O)(=O)c2cccc(C(=O)NNC(=O)c3ccc(Br)o3)c2)cc1 | -4.08 |
| O=C(C[n+]1cc(-c2ccccc2)n2c1CCC2)N1c2ccccc2Sc2ccccc21.[Cl-] | -16.3 |
| CCOC(=O)c1c(C)nc2c(c1-c1ccc(Cl)cc1)C(=O)CC(C)(C)C2 | -4.48 |
| N#CCCN(C(=O)COC(=O)CCc1ccccc1)c1ccccc1 | -14.7 |
| Cc1ccc(NC(=O)CN2C(=O)CC(C)S(=O)(=O)c3ccccc32)cc1 (stereo not drawn) | 9.68 |
| CC1CN=C(Nc2ccc(N(C)C)cc2)S1 (stereo not drawn) | -6.42 |
